Measurements taken from patent US8222257B2, “Phosphono-pent-2-en-1-yl nucleosides and analogs” (The Regents of the University of California, priority 2005, dated 2012).

Key:
HCMV AD169 = HCMV AD169 plaque reduction assay in HFF cells; conditions: Human betaherpesvirus 5
cowpox Brighton = test: organism not typed; conditions: HFF, read-out: Cowpox EC50, cowpox Brighton, plaque reduction assay in HFF cells
vaccinia WR = test: microbe, parasite or virus in culture; conditions: Orthopoxvirus vaccinia, HFF, read-out: Vaccinia EC50, vaccinia WR, plaque reduction assay in HFF cells

Row | Compound | EC50 (HCMV AD169) | EC50 (cowpox Brighton) | EC50 (vaccinia WR)
1 | CCCCCCCCCCCCCCCCOCCCOP(=O)(O)CC/C=C\Cn1cnc2c(=O)[nH]c(N)nc21 [HDP-PPen-G, (Z)-3-(hexadecyloxy)propyl hydrogen 5-(2-amino-6-oxo-1,6-dihydropurin-9-yl)pent-3-enylphosphonate] | 0.73 µM | – | –
2 | Nc1ncnc2c1ncn2CC=CCCP(=O)(O)O [PPen-A, 9-(5-Phosphono-pent-2-en-1-yl)-adenine] | > 100 µM | > 100 µM | > 100 µM
3 | Cc1cn(CC=CCCP(=O)(O)O)c(=O)[nH]c1=O [PPen-T, 1-(5-Phosphono-pent-2-en-1-yl)-thymine] | > 100 µM | > 100 µM | > 100 µM
4 | O=c1ccn(CC=CCCP(=O)(O)O)c(=O)[nH]1 [PPen-U, 1-(5-Phosphono-pent-2-en-1-yl)-uracil] | > 100 µM | > 100 µM | > 100 µM
5 | CCCCCCCCCCCCCCCCOCCCOP(=O)(O)CC/C=C\Cn1ccc(=O)[nH]c1=O [HDP-PPen-U, (3Z)-3-(hexadecyloxy)propyl hydrogen 5-(3,4-dihydro-2,4-dioxopyrimidin-1(2H)-yl)pent-3-enylphosphonate] | > 20 µM | > 100 µM | > 100 µM
6 | Nc1ccn(CC=CCCP(=O)(O)O)c(=O)n1 [PPen-C, 1-(5-Phosphono-pent-2-en-1-yl)cytosine] | > 100 µM | > 100 µM | > 100 µM
7 | CCCCCCCCCCCCCCCCOCCCOP(=O)(O)CC/C=C\Cn1cnc2c(N)ncnc21 [HDP-PPen-A] | > 20 µM | > 20 µM | 39.4 µM
8 | Nc1nc2c(ncn2CC=CCCP(=O)(O)O)c(=O)[nH]1 [PPen-G, 9-(5-Phosphono-pent-2-en-1-yl)-guanine] | 68.4 µM | > 100 µM | > 100 µM
9 | CCCCCCCCCCCCCCCCOCCCOP(=O)(O)CC/C=C\Cn1ccc(N)nc1=O [HDP-PPen-C, (3Z)-3-(hexadecyloxy)propyl hydrogen 5-(4-amino-2-oxopyrimidin-1(2H)-yl)pent-3-enylphosphonate] | 2.9 µM | > 20 µM | > 20 µM
10 | CCCCCCCCCCCCCCCCOCCCOP(=O)(O)CC/C=C\Cn1cc(C)c(=O)[nH]c1=O [HDP-PPen-T] | 0.64 µM | > 20 µM | > 20 µM
